Reference: PubChem BioAssay AID504339 (National Center for Advancing Translational Sciences (NCATS), 2011)
The campaign covered roughly 390,000 compounds. About 17,000 (4.4%) were called active. The shares of active, inactive and inconclusive entries below differ from those in the screen. The call rests on the fitted dose curve; in most records, active means well fitted inhibition curve with a large enough effect; inconclusive means small, poorly fitted or top-dose-only effect; inactive means no such curve, though single readings can be large or run the other way. A potency beside an inconclusive call is a rough fit, not a confirmed value.

Each compound was assayed against Lysine-specific demethylase 4A (Homo sapiens) (UniProt O75164) (assay: qHTS Assay for Inhibitors of JMJD2A-Tudor Domain). Conditions: AlphaScreen JMJD2A-Tudor / H3K4me3 peptide binding; series mostly up to 114 µM.
Further: nearly all actives have a fitted effect of over 50% in size.
Potency means the concentration at half of the fitted maximal effect; tags describe the fitted curve by direction and shape.

UniProt O75164, sequence (O75164 whole entry, looked up, the tested form may be a part): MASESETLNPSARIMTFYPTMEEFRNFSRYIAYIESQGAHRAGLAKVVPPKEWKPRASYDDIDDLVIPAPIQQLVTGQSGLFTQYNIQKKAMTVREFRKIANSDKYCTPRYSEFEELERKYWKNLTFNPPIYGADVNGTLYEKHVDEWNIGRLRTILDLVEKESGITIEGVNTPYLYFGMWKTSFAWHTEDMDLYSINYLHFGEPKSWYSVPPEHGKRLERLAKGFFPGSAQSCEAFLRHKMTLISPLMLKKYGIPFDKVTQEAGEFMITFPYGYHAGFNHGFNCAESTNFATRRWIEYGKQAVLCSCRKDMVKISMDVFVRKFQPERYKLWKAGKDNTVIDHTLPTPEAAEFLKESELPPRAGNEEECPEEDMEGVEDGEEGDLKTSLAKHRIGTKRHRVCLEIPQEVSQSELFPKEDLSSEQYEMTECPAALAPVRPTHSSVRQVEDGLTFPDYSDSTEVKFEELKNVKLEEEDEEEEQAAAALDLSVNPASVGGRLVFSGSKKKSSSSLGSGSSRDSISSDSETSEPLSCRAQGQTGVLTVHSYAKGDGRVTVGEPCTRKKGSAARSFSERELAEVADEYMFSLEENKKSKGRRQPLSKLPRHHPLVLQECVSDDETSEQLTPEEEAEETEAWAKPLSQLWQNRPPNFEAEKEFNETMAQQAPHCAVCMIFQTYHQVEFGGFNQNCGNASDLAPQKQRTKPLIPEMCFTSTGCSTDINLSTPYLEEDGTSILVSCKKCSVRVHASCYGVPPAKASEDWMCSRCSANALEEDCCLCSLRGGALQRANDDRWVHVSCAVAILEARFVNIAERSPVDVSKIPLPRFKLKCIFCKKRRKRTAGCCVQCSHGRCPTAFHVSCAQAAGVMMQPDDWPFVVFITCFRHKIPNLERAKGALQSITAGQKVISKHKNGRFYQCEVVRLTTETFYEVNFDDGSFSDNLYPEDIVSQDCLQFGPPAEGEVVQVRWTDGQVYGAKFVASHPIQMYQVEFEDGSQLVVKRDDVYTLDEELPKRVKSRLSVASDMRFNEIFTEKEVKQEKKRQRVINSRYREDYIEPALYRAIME

Potency, inconclusive:
O=[N+]([O-])c1ccc(NC(=S)NCCc2ccc(F)cc2)cc1 56.2 µM [inhibitor, partial curve], Cc1cc(NC(=O)CCc2ccccc2)c([N+](=O)[O-])cc1C 35.5 µM [inhibitor, single point], COc1ccc(N2CCN(C(=O)c3ccccc3N(C)S(=O)(=O)c3ccc(C)cc3)CC2)cc1 35.5 µM [inhibitor, partial curve], [O-]/C(=C(\C(=S)Nc1ccc(SC(F)F)cc1)[n+]1cccc(CO)c1)c1ccc(Cl)s1 50.1 µM [inhibitor, partial curve], Cc1cc(Cl)c2oc(C(=O)N(C)CC3CCOCC3)c(C)c2c1 15.8 µM [inhibitor, full curve, poor fit], COc1ccc(CCN2C(=O)CC(Nc3ccc(N4CCOCC4)cc3)C2=O)cc1OC (centres undefined) 79.4 µM [inhibitor, single point], O=c1c2ccccc2c(/C=N/c2n[nH]c(CCCO)n2)c(O)n1-c1ccccc1Cl 56.2 µM [inhibitor, partial curve], O=[N+]([O-])c1ccc(C2=NN(CCO)C(=Nc3ccc(OC(F)(F)F)cc3)SC2)cc1 35.5 µM [inhibitor, full curve], CCn1ccnc1CN(C)Cc1cn(-c2cc(C)ccc2C)nc1-c1ccccc1 44.7 µM [inhibitor, partial curve], CCn1c(SCC(=O)c2ccc(CNC(C)=O)o2)nnc1-c1cccs1 50.1 µM [inhibitor, partial curve], CC(=O)Nc1ccc(S(=O)(=O)NCc2ccc3c(c2)cc(C)n3C)cc1 39.8 µM [inhibitor, partial curve], Cc1cccc(N=C2Sc3nc4c(C)c(C)ccc4cc3CN2CCN2CCOCC2)c1 25.1 µM [inhibitor, full curve]

Potency, active:
CC(=O)Nc1ccc(C2=NN(C)C(=NCc3ccccc3)SC2)cc1 44.7 µM, O=C(O)CCNc1cc2ccccc2cc1C(=O)O 39.8 µM

Potency, inactive:
COc1ccc(-n2cc(C(=O)Nc3ccccc3C#N)c3ccccc3c2=O)cc1, O=C1CCCC(O)=C1Sc1cc(Cl)c(Cl)cc1Cl, CC(=O)Nc1c(C(=O)Nc2ccccc2F)oc2ccccc12, CN1CCc2c(sc(NC(=O)c3ccc(S(=O)(=O)N4CCCC4)cc3)c2C(N)=O)C1, CCN1CCc2nc(SCC(=O)Nc3ccc(OC)cc3)c(C#N)cc2C1
